Data published in the supplement of paper PMC3334620.
Whole data set: some 33,000 sequences, median “E-score (-0.5 to 0.5)” near -0.017, cut for the highest 2% near 0.3. This is one part of the list.

target: T1, Sut1 (UniProt P53032); experiment: PBM E-score (8-mer binding enrichment) (E-score (-0.5 to 0.5)); higher = stronger / more preferred TF binding; most listed sequences are background and not binding sites; settings: protein concentration: 200 nM; construct: GST-full length
T1 sequence: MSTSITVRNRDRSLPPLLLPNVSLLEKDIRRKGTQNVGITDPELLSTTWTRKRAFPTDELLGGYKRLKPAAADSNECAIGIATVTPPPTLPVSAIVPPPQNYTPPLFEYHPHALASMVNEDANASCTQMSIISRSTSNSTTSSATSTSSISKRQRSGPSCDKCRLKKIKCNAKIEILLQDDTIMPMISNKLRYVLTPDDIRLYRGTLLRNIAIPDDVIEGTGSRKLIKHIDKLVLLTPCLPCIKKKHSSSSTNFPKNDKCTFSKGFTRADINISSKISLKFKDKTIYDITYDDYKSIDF
Outline: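 Universal all-10-mer Agilent arrays, fresh or stripped once, were converted to double-stranded form by primer extension. GST-tagged yeast transcription factors from PURExpress in vitro transcription/translation, full-length or DNA-binding domain only, were applied at about 100-200 nM and detected with fluorescent anti-GST. After masliner normalisation, the Universal PBM Analysis Suite scored each ungapped eight-base word together with its reverse complement by E-score.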

Compared with CTCCTGTC, TCGCGAGA is lower in “PBM E-score” value: 0.0458 for the first, 0.028 for the second.

Going from AGCTACGG to CCACCCAA, the “PBM E-score” value rises from -0.144 to -0.0338.

First: GACGATGC
Second: AATAACGG
The “PBM E-score” value of the first is lower: -0.189 for the first, 0.17 for the second.

First: GCAACACC
Second: AGTCAAGC
The “PBM E-score” value of the first is higher: 0.00403 for the first, -0.299 for the second.

Going from ACGCGCCA to CGATGGTA, the “PBM E-score” value rises from -0.231 to -0.0389.

First: ATTTTTAA
Second: CAAAGGAC
The “PBM E-score” value of the first is higher: 0.249 for the first, -0.235 for the second.

Compared with ACGAACGT, CATAGACG is higher in “PBM E-score” value: -0.00531 for the first, 0.014 for the second.

First: AGGCCGGA
Second: GATACACC
The “PBM E-score” value of the first is higher: 0.279 for the first, 0.14 for the second.

Going from CGGAAACA to GAAGTCTC, the “PBM E-score” value falls from 0.236 to -0.126.

Compared with CAATAATC, AAAGGAGG is lower in “PBM E-score” value: 0.0927 for the first, -0.105 for the second.

First: CGAGGGCC
Second: ATGATCAT
The “PBM E-score” value of the first is lower: -0.113 for the first, 0.0203 for the second.

Compared with CGTAAACC, TGAGGTAA is higher in “PBM E-score” value: -0.153 for the first, 0.0544 for the second.

Going from ATGGGGTC to GCGCGAGA, the “PBM E-score” value rises from -0.127 to 0.00138.

First: CTTCTTTC
Second: TAGACCTA
The “PBM E-score” value of the first is higher: 0.0488 for the first, -0.088 for the second.

First: CGTCAAGA
Second: CTCGGATA
The “PBM E-score” value of the first is lower: -0.239 for the first, 0.126 for the second.

Going from GCTTAAGC to ATCGCAAT, the “PBM E-score” value rises from -0.0407 to 0.0798.

First: CCTCTCGC
Second: TAATATTA
The “PBM E-score” value of the first is lower: -0.157 for the first, 0.313 for the second.

First: CGGCGCAA
Second: CCACATAA
The “PBM E-score” value of the first is higher: -0.0845 for the first, -0.159 for the second.

Going from ACGTCACT to AGCATAGA, the “PBM E-score” value falls from -0.0239 to -0.0956.

Going from ATGCCCGA to GATTTGGC, the “PBM E-score” value falls from -0.173 to -0.189.

Compared with CTCACTTC, CCCATTTA is higher in “PBM E-score” value: -0.141 for the first, -0.0267 for the second.

Compared with CGACGATC, CACAAGCC is lower in “PBM E-score” value: -0.0217 for the first, -0.125 for the second.

Compared with AACAGTGT, AGCCACAT is higher in “PBM E-score” value: -0.129 for the first, 0.00792 for the second.

Compared with CGCGACAA, ATTCTCAC is higher in “PBM E-score” value: 0.0933 for the first, 0.117 for the second.

First: ACGCCGTG
Second: ACTGTAAT
The “PBM E-score” value of the first is lower: -0.102 for the first, 0.0264 for the second.

Going from GTACAGGA to ATCTACTC, the “PBM E-score” value rises from -0.0133 to 0.235.

First: CTAGAGCA
Second: GCTATGCA
The “PBM E-score” value of the first is higher: -0.189 for the first, -0.271 for the second.

Going from AGTGGAGG to ACATGCGG, the “PBM E-score” value rises from -0.123 to -0.0523.

Compared with ATCGGAGG, AGAGACGC is lower in “PBM E-score” value: 0.0998 for the first, -0.098 for the second.

Compared with CGGTTGAA, AAGAGCCG is lower in “PBM E-score” value: 0.0439 for the first, 0.0308 for the second.

Going from GGGCACGA to CGGTCCAC, the “PBM E-score” value falls from -0.146 to -0.219.

First: GCCCCGGC
Second: AGCTACTA
The “PBM E-score” value of the first is lower: -0.132 for the first, 0.107 for the second.

First: CACTTGAC
Second: GACTTATC
The “PBM E-score” value of the first is lower: -0.05 for the first, -0.0236 for the second.

Compared with TAGAATGA, GTACTACA is higher in “PBM E-score” value: 0.0776 for the first, 0.161 for the second.

Going from ACTTTTTG to ACCAGTCC, the “PBM E-score” value falls from -0.00642 to -0.0976.

Compared with CATGTTAA, GAGGAATA is lower in “PBM E-score” value: 0.132 for the first, 0.00482 for the second.

Compared with ATTAGGCC, ATCCCGAG is lower in “PBM E-score” value: 0.0267 for the first, -0.0219 for the second.

Going from GGGCGACA to AATCATCG, the “PBM E-score” value rises from -0.287 to 0.124.

Going from GCCGCGAC to AGAGAGAT, the “PBM E-score” value rises from -0.189 to 0.0383.

Compared with CCGCTTCA, ATGGGTTA is higher in “PBM E-score” value: -0.0538 for the first, 0.0789 for the second.

Compared with GGCCCGAA, GGTCCAAA is lower in “PBM E-score” value: -0.0545 for the first, -0.168 for the second.

Compared with ATTTTAGA, AGACCCAC is lower in “PBM E-score” value: 0.154 for the first, -0.094 for the second.

Compared with CAGACTTC, AGGAGGTA is higher in “PBM E-score” value: -0.161 for the first, -0.0313 for the second.
